The results in this text go back to article PMC11638247.

Protein sequences, listed by entry. Tags and fused reporters are not part of them.
UniProt Q9EPN1: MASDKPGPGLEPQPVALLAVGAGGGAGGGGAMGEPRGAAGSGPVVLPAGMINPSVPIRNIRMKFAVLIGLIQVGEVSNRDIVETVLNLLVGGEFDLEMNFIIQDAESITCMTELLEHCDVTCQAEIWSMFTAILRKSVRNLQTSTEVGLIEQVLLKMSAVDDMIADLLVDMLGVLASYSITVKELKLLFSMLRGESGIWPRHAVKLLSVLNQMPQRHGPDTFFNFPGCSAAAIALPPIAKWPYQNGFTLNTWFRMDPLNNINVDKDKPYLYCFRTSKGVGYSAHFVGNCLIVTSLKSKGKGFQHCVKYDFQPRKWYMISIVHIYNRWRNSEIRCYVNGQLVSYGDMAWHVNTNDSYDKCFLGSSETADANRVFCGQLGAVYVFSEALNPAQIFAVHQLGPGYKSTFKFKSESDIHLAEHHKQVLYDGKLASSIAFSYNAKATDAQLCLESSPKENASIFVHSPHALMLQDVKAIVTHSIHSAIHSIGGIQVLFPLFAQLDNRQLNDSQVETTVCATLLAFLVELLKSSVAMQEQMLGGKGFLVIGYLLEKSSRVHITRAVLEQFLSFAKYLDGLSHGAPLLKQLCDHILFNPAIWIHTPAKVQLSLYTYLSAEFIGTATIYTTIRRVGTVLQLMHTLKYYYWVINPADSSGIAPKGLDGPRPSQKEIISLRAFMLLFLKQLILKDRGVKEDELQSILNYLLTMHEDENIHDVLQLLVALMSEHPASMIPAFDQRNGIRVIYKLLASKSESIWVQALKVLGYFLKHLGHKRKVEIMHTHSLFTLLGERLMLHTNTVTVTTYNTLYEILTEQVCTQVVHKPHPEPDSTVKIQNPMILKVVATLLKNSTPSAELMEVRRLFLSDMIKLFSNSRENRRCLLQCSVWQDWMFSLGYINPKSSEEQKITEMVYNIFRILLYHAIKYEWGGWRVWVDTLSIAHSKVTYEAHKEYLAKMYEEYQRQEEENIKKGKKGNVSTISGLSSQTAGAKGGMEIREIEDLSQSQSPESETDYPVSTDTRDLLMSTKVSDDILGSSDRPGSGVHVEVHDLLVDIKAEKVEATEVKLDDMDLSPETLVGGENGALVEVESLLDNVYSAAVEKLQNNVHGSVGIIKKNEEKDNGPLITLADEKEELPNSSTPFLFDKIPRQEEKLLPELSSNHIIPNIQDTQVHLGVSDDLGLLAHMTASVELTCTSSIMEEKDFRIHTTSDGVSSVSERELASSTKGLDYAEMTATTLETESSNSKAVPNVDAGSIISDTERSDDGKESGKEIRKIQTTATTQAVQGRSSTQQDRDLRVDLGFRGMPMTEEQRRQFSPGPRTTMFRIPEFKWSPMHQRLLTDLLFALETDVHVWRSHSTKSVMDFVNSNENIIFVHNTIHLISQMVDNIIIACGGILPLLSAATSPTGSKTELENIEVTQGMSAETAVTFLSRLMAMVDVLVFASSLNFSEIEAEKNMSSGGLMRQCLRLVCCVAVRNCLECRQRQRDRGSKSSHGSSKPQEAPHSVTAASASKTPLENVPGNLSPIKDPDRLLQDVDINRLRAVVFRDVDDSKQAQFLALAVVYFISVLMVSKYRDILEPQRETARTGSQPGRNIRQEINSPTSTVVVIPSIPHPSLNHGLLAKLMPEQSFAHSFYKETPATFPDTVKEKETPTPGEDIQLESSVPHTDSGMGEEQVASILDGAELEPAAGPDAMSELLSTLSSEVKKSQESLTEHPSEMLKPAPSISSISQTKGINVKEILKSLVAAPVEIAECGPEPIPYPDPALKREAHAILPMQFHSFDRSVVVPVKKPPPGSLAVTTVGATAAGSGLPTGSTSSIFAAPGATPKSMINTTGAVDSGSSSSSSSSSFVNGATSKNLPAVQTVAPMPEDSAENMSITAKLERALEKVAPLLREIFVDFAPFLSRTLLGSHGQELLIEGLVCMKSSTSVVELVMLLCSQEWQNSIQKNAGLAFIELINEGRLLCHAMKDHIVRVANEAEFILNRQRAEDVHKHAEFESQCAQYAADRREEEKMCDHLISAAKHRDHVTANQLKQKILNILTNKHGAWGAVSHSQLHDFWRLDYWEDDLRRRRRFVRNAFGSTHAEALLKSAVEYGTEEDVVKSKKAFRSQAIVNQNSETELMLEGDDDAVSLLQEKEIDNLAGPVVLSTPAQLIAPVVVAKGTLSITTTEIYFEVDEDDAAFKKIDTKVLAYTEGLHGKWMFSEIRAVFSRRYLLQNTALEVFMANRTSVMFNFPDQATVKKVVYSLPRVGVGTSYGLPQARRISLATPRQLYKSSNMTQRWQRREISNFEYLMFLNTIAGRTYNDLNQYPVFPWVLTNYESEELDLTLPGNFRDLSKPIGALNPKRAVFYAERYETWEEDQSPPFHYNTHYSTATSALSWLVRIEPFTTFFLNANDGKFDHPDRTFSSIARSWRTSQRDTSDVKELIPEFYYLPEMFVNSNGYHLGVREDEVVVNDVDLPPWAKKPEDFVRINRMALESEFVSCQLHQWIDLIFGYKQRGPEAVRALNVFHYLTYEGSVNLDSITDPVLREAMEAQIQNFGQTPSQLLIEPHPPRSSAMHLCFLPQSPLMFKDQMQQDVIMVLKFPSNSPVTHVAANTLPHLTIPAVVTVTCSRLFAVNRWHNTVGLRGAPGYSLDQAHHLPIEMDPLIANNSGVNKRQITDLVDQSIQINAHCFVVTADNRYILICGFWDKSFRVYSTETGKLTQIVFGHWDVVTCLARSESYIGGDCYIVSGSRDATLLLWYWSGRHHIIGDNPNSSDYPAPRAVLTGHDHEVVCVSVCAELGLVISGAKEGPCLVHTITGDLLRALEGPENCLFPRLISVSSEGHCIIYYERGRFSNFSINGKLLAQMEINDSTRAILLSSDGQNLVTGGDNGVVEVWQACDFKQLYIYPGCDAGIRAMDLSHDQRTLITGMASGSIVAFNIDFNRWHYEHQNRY

One test concerns the target GFP-Nbea (UniProt Q9EPN1). As to the kind of experiment: pull-down; GFP-Nbea from COS-7 lysate held on GFP-Trap magnetic beads, stringently washed (500 mM NaCl, 0.1% SDS, 1% Triton X-100) to remove ancillary proteins, then incubated 1 h with 4 µg purified gephyrin; 4 °C; Western blot; both purified.
Test [1] concerns the target T1, GABAA receptor γ2 subunit (GABAAR γ2-containing receptors), endogenous (mouse (endogenous in cortex)) (UniProt P22723).
T1 sequence: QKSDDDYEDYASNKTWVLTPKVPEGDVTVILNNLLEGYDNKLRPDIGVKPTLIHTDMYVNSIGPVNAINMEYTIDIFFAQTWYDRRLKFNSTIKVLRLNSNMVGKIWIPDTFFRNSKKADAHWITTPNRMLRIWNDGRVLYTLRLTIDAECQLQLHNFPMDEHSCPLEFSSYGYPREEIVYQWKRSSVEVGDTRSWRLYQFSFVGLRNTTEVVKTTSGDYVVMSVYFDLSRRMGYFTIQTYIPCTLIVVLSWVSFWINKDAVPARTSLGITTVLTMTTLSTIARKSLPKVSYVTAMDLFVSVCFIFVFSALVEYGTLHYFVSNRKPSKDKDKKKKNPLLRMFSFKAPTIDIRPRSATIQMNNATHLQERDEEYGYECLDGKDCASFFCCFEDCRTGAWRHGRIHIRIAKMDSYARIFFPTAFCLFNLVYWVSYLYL
Nature of the test: co-IP; antibody on Dynabeads Protein G incubated 2-4 h with adult mouse cortical lysate P2; IM-Ac buffer with 1% Triton, pH 7.2, 4 °C; Western blot.

No constants are given. Whether binding was seen depends on the method and setting. For some assays here: In cells and extracts the contact can be indirect. Some entries that bind do so weakly or less than the wild type.

B1: Full-length gephyrin (purified) (protein, UniProt Q03555 1-768)
chain: MATEGMILTNHDHQIRVGVLTVSDSCFRNLAEDRSGINLKDLVQDPSLLGGTISAYKIVPDEIEEIKETLIDWCDEKELNLILTTGGTGFAPRDVTPEKFPTFPFCGLQKGATKEVIEREAPGMALAMLMGSLNVTPLGMLSRPVCGIRGKTLIINLPGSKKGSQECFQFILPALPHAIDLLRDAIVKVKEVHDELEDLPSPPPPLSPPPTTSPHKQTEDKGVQCEEEEEEKKDSGVASTEDSSSSHITAAALAAKIPDSIISRGVQVLPRDTASLSTTPSESPRAQATSRLSTASCPTPKQIRRPDESKGVASRVGSLKVQSRCSSKENILRASHSAVDITKVARRHRMSPFPLTSMDKAFITVLEMTPVLGTEIINYRDGMGRVLAQDVYAKDNLPPFPASVKDGYAVRAADGPGDRFIIGESQAGEQPTQTVMPGQVMRVTTGAPIPCGADAVVQVEDTELIRESDDGTEELEVRILVQARPGQDIRPIGHDIKRGECVLAKGTHMGPSEIGLLATVGVTEVEVNKFPVVAVMSTGNELLNPEDDLLPGKIRDSNRSTLLATIQEHGYPTINLGIVGDNPDDLLNALNEGISRADVIITSGGVSMGEKDYLKQVLDIDLHAQIHFGRVFMKPGLPTTFATLDIDGVRKIIFALPGNPVSAVVTCNLFVVPALRKMQGILDPRPTIIKARLSCDVKLDPRPEYHRCILTWHHQEPLPWAQSTGNQMSSRLMSMRSANGLLMLPPKTEQYVELHKGEVVDVMVIGRL
For the molecule B1, the binding entry with GFP-Nbea was “binds”.

B2: Gephyrin (endogenous) (protein, UniProt Q8BUV3 1-769)
chain: MATEGMILTNHDHQIRVGVLTVSDSCFRNLAEDRSGINLKDLVQDPSLLGGTISAYKIVPDEIEEIKETLIDWCDEKELNLILTTGGTGFAPRDVTPEATKEVIEREAPGMALAMLMGSLNVTPLGMLSRPVCGIRGKTLIINLPGSKKGSQECFQFILPALPHAIDLLRDAIVKVKEVHDELEDLPSPPPPLSPPPTTSPHKQTEDKGVQCEEEEEEKKDSGVASTEDSSSSHITAAALAAKIPDSIISRGVQVLPRDTASLSTTPSESPRAQATSRLSTASCPTPKQIRRPDESKGVASRVGSLKARLPSCSSTYSVSEVQSRCSSKENILRASHSAVDITKVARRHRMSPFPLTSMDKAFITVLEMTPVLGTEIINYRDGMGRVLAQDVYAKDNLPPFPASVKDGYAVRAADGPGDRFIIGESQAGEQPTQTVMPGQVMRVTTGAPIPCGADAVVQVEDTELIRESDDGTEELEVRILVQARPGQDIRPIGHDIKRGECVLAKGTHMGPSEIGLLATVGVTEVEVNKFPVVAVMSTGNELLNPEDDLLPGKIRDSNRSTLLATIQEHGYPTINLGIVGDNPDDLLNALNEGISRADVIITSGGVSMGEKDYLKQVLDIDLHAQIHFGRVFMKPGLPTTFATLDIDGVRKIIFALPGNPVSAVVTCNLFVVPALRKMQGILDPRPTIIKARLSCDVKLDPRPEYHRCILTWHHQEPLPWAQSTGNQMSSRLMSMRSANGLLMLPPKTEQYVELHKGEVVDVMVIGRL
Consider B2, for which, in test [1], the binding result was “binds”.
